PMC7819943, “Rice protein-binding microarrays: a tool to detect cis-acting elements near promoter regions in rice”
This is one part of the list.

These sequences were tested against T1, OsWOX13 (Oryza sativa, UniProt Q5QMM3 1-267) (assay: protein-binding microarray (RPBM); PBS, 2% BSA, 51.3 ng/ul salmon testes DNA, 50 uM zinc acetate, 200 nM TF, 25 C, 1 h; high values mean tight binding). Conditions: protein: recombinant; tags: N-terminal polyhistidine and DsRed monomer fusion (pET32a); label: CyDye5-dUTP incorporated in the synthesized complementary strand; 3' TTTTT single-stranded linker to array surface; dsDNA, one strand shown.
T1 sequence: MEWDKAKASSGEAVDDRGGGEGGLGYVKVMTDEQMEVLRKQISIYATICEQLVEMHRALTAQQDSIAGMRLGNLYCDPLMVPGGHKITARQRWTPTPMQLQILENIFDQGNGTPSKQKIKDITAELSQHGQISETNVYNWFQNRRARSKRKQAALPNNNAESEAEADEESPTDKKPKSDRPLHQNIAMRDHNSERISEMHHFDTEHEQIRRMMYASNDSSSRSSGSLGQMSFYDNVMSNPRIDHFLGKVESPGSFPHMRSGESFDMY
How it was run: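 The binding signal is fluorescence intensity per array feature (arbitrary units). Readings came from an Axon 4000B scanner after a washed, 2% BSA-blocked, double-stranded custom Agilent array had been incubated for 1 h at 25 °C with 200 nM protein and 50 µM zinc acetate. The protein was a Ni–NTA-purified transcription factor fused N-terminally to polyhistidine and DsRed, expressed in E. coli BL21-CodonPlus.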

Sequence	binding signal
AGGACTAATCACCTCATTAGTCTATACACATTCTCCGTTTCGGAGTCACCTAGTGCAG	7680 fluorescence intensity (a.u.)
CCAATGACAACTAGTACTTAATTTGGAACAGAGTGAACAGCGGAGTCACCTAGTGCAG	3910 fluorescence intensity (a.u.)
TTTCAAATCATCATTTTGGAGTAACATCACTTTGGAAACCCGGAGTCACCTAGTGCAG	3180 fluorescence intensity (a.u.)
GTGGGGATTGGAGTTGGAAAAGTTTTACTTTCACAGTGATCGGAGTCACCTAGTGCAG	3640 fluorescence intensity (a.u.)
CTGTAATTTAACATACAAATATCAATCTTCTTCCAGTTTTCGGAGTCACCTAGTGCAG	12100 fluorescence intensity (a.u.)
AGACTGCTGATGATTACATTCCAAAATGACAGTATTACAGCGGAGTCACCTAGTGCAG	9390 fluorescence intensity (a.u.)
TGAAATTTAATCTAATTTCTATGATACAAAGTTAATGTTGCGGAGTCACCTAGTGCAG	14200 fluorescence intensity (a.u.)
TCTTCTGGTAATGGAGATGGAGATTACCAAAACTCAATACCGGAGTCACCTAGTGCAG	3770 fluorescence intensity (a.u.)
TATCCGTAATTCACAAAATTGAAAGGACTACTCGAACCTGCGGAGTCACCTAGTGCAG	7020 fluorescence intensity (a.u.)
TATAACAATAATGATACTGGATTGGCACACCGGAAATTCACGGAGTCACCTAGTGCAG	8740 fluorescence intensity (a.u.)
TTAATTGCAATAAACACAACGGCGTAATCGGATTATAAATCGGAGTCACCTAGTGCAG	8560 fluorescence intensity (a.u.)
CGGTCAAATTATCCAAATTAATTAAAGAGGGAACTCGGTCCGGAGTCACCTAGTGCAG	35300 fluorescence intensity (a.u.)
ATTGATTAGATCCATTGTTTTATTCTAACCATAGATTAATCGGAGTCACCTAGTGCAG	39400 fluorescence intensity (a.u.)
GAAGATGACGAGTTTATGAAGGCTGTATACGATAGGCTTGCGGAGTCACCTAGTGCAG	4210 fluorescence intensity (a.u.)
TTTAGGAATGATTGGACCTAAAGTTTAGGAGTGGTTGATTCGGAGTCACCTAGTGCAG	28000 fluorescence intensity (a.u.)
ATTACACTGTAGTCGTTTATTATGTAAAATAACGGCCTAGCGGAGTCACCTAGTGCAG	21600 fluorescence intensity (a.u.)
AGGTTGACAGAAATCGTTACAGCAATGGCGCGGTTCAAATCGGAGTCACCTAGTGCAG	22400 fluorescence intensity (a.u.)
ATAACATTATCATTATAGACATTGATATATGAGATAATAGCGGAGTCACCTAGTGCAG	6010 fluorescence intensity (a.u.)
CAGATTAATTAGTTGGTTTATTATGTCATATCTGCGAGACCGGAGTCACCTAGTGCAG	30400 fluorescence intensity (a.u.)
GTATGATTAATCCGTTCTTCCATATGTAGGTACAATATTACGGAGTCACCTAGTGCAG	5700 fluorescence intensity (a.u.)
CTTAATTATTATCATTATCTAAAACTAACCGTATTAGTTACGGAGTCACCTAGTGCAG	23000 fluorescence intensity (a.u.)

Sequence	binding signal
AATTGACGTAATTTCAGGTCGTATTTGTGGTGCAACAACCCGGAGTCACCTAGTGCAG	16600 fluorescence intensity (a.u.)
ATTTTATAGGAATTAAATAAATTAATTTCTAGAGTCTGTACGGAGTCACCTAGTGCAG	11400 fluorescence intensity (a.u.)
GCAAATACTTAATTAATAATGTGTTAATGGGTAACACCGTCGGAGTCACCTAGTGCAG	22300 fluorescence intensity (a.u.)
ACATCAATAAAATTAAATTAGTTTCATTAAATATAACATTCGGAGTCACCTAGTGCAG	5700 fluorescence intensity (a.u.)
CGAATTTAATGGTGCAATCAGATCATGATTTGGATAAGTACGGAGTCACCTAGTGCAG	18500 fluorescence intensity (a.u.)
GGTTGGGAGTTGGGGAGGAGGGGAGTTAGGCAAAGAGGAGCGGAGTCACCTAGTGCAG	3160 fluorescence intensity (a.u.)
ATCAAGAACATAATTAGCATGGTAATATATGCAAGAACAACGGAGTCACCTAGTGCAG	3960 fluorescence intensity (a.u.)
CTGATTAAGAATAGGGTTGATGTCAATGTTGCTGATAATGCGGAGTCACCTAGTGCAG	7360 fluorescence intensity (a.u.)
ACATAAGTCAAACAGATTGTCAATCAGATCGAGCAGTTGTCGGAGTCACCTAGTGCAG	41400 fluorescence intensity (a.u.)
GGTAAATCGTTAATTGCTATGTCACAAGAGTGGCAAATAGCGGAGTCACCTAGTGCAG	12800 fluorescence intensity (a.u.)
TATAGTTGATTTATTTAGGAGAGTTAGTTGATTTGTGTTCCGGAGTCACCTAGTGCAG	24100 fluorescence intensity (a.u.)
GAAATTAACAGCGGCTTAATCAGAAGAAACGAACCAATCACGGAGTCACCTAGTGCAG	11500 fluorescence intensity (a.u.)
TGGGCCTTGCATGAGTTTGATTGACCCTATGGTCTGCGCACGGAGTCACCTAGTGCAG	4520 fluorescence intensity (a.u.)
GGCATGCTGATTGAGTTTATGTTCAGGTAAGCTATGAGAACGGAGTCACCTAGTGCAG	31600 fluorescence intensity (a.u.)
AGTGATTAGATTAGTGAACTGATTAACATTTCTTGTGTTCCGGAGTCACCTAGTGCAG	64700 fluorescence intensity (a.u.)
ATATAATGGCCAGTCTAAATTTTACAAAATACAAGTGGCACGGAGTCACCTAGTGCAG	13400 fluorescence intensity (a.u.)
TCCTAATCAATCGCCGCCTTTTCTCTCTTCTCGCCTCTCCCGGAGTCACCTAGTGCAG	11400 fluorescence intensity (a.u.)
GATAAATGACGACGCTAAATGTGTAGTTTTGTGATAAACGCGGAGTCACCTAGTGCAG	9810 fluorescence intensity (a.u.)
GCTGATGGTTTGTGTCGGGAGGGGAGGATTGAGGATGCTTCGGAGTCACCTAGTGCAG	9110 fluorescence intensity (a.u.)
TACTTATGTAAAAGGATTGATTTAAGAGAATGGTCCAAACCGGAGTCACCTAGTGCAG	3890 fluorescence intensity (a.u.)
AGAGATTTGTTTGGTGAATGGTGATTTCTTCCTGTGATGACGGAGTCACCTAGTGCAG	6100 fluorescence intensity (a.u.)

Sequence	binding signal
AAATCAATCTGATGGGCCGAATTGGAGGCCCATATCCGTGCGGAGTCACCTAGTGCAG	8660 fluorescence intensity (a.u.)
TTTTCATAAACAAGTGATTGGTGTCACTGACAACAACCCTCGGAGTCACCTAGTGCAG	12900 fluorescence intensity (a.u.)
TGTATTTGAATTTGATTGTTCTTGAGATTACTGAGTTGGACGGAGTCACCTAGTGCAG	6610 fluorescence intensity (a.u.)
ATAAAATTTATAATCATTTGACTTTTCTTTAAATCCAGAACGGAGTCACCTAGTGCAG	17700 fluorescence intensity (a.u.)
TAAAACTTATTTCTTGATAGATCAATCCCAGATTACAATGCGGAGTCACCTAGTGCAG	8210 fluorescence intensity (a.u.)
ATTAGATAGTACTAATACCTGATTAGACGCCGTCCCATTGCGGAGTCACCTAGTGCAG	4870 fluorescence intensity (a.u.)
TTGGTTTTGCCAATTAGATGGCTAATCGATCGATCAATCGCGGAGTCACCTAGTGCAG	6280 fluorescence intensity (a.u.)
AATCGAATTCAATCATGAAGAACGAGATAGCAACATTTAGCGGAGTCACCTAGTGCAG	12300 fluorescence intensity (a.u.)
TTAATTACAAATTGATTTGATCACGTAGATAATTACATCACGGAGTCACCTAGTGCAG	62000 fluorescence intensity (a.u.)
TTGCGTAACTCCCCTAATTATAATGGCGCCTAAACCAAACCGGAGTCACCTAGTGCAG	7110 fluorescence intensity (a.u.)
TCAACTGATGAGAGTAAACATCCATATGCTCTCAGAGGCACGGAGTCACCTAGTGCAG	3140 fluorescence intensity (a.u.)
GTGATAATTTTATTACTAAATTTATAGTTTGGTGATCTTCCGGAGTCACCTAGTGCAG	28200 fluorescence intensity (a.u.)
AAAATGGGGTGGGATTAGAATTGGTAAATGAATCAGGGTTCGGAGTCACCTAGTGCAG	3800 fluorescence intensity (a.u.)
GGCATTGACTGCAAATATGCAATCATGGGATTGACCACTACGGAGTCACCTAGTGCAG	21900 fluorescence intensity (a.u.)
CATTAATTGACCGTAAATTTAGAATAAGGCCAGCATTAGTCGGAGTCACCTAGTGCAG	38700 fluorescence intensity (a.u.)
TTGTAAAATAAATTTATAGCCGTTTAGGTAATATGCAAGCCGGAGTCACCTAGTGCAG	7940 fluorescence intensity (a.u.)
AATGGATTGGATACCTAAACATCATTTCATAAGAAAATGCCGGAGTCACCTAGTGCAG	6190 fluorescence intensity (a.u.)
TCAAAATTTGACTTCATGTATAGATTTCTTATCAATCTGTCGGAGTCACCTAGTGCAG	8410 fluorescence intensity (a.u.)
AGTCCTTTAATTAATTTATTATTATTATACCAGGACTTGTCGGAGTCACCTAGTGCAG	24600 fluorescence intensity (a.u.)
TTTGATTTGAAGAGAATTAAACAAAATTAAGGGAGAGTAACGGAGTCACCTAGTGCAG	28200 fluorescence intensity (a.u.)
ATATATTAACTGCATGCAATTAGAGTTTAATCTTGGGCATCGGAGTCACCTAGTGCAG	13300 fluorescence intensity (a.u.)

Sequence	binding signal
ATTTATGTAATTAGTTTTATAAGTAGTCTATATTTAATACCGGAGTCACCTAGTGCAG	4210 fluorescence intensity (a.u.)
AAAATAAGATGATTGAAAGAAAACATGTATAACATAAACACGGAGTCACCTAGTGCAG	14300 fluorescence intensity (a.u.)
AGAGTTGATAGACGCAAACAAACCAGATAGCTAGCCACCCCGGAGTCACCTAGTGCAG	24700 fluorescence intensity (a.u.)
AGTTACCAAATAACTGATTATAGTTATTTGGAGAAGGTTACGGAGTCACCTAGTGCAG	8300 fluorescence intensity (a.u.)
ATACCTTATTGAAATATGATTGTTCGACTGGTTACTGAATCGGAGTCACCTAGTGCAG	19500 fluorescence intensity (a.u.)
TTAAATGACTTTCTTTAGGGATTTCTACATAGGATTTGATCGGAGTCACCTAGTGCAG	3180 fluorescence intensity (a.u.)
AATGCACATGGGGATTGATTGAACTGAAGACGCCATTGATCGGAGTCACCTAGTGCAG	37900 fluorescence intensity (a.u.)
TTCTGATTAGTTACAACTTGAGTTCACTATTGTCATGATACGGAGTCACCTAGTGCAG	37200 fluorescence intensity (a.u.)
GGATTGTAATTTATCATTGGAGCTAATGATGTGGTGTCTTCGGAGTCACCTAGTGCAG	12000 fluorescence intensity (a.u.)
ATTAGGATAATGATAAATTACGATAATACTCCTACATGAACGGAGTCACCTAGTGCAG	5920 fluorescence intensity (a.u.)
CGCAAATCAAATTATGCATATATAGCTTGCTTGGACTTTACGGAGTCACCTAGTGCAG	6520 fluorescence intensity (a.u.)
TCCATGTGATTTTGTTGAATTGTTGGGCCAAGTAAATCTGCGGAGTCACCTAGTGCAG	13600 fluorescence intensity (a.u.)
TTTAAATGGAAAATTTAGGCGTTGTTAAAGATTTGAGCGACGGAGTCACCTAGTGCAG	14800 fluorescence intensity (a.u.)
CCACGGGTAAACGGGCAAATTGGCATAATTGCCATCCCTACGGAGTCACCTAGTGCAG	8320 fluorescence intensity (a.u.)
TTAAAATTTTATTATTTATAATATGAATATTAATAGAGTACGGAGTCACCTAGTGCAG	5690 fluorescence intensity (a.u.)
ATATTTTGATTTATAATAGGCGGGGAAATAGCTATCTCAACGGAGTCACCTAGTGCAG	14800 fluorescence intensity (a.u.)
GTCATTGATTATTTGTTGTAGCACCTTAAATATTGGTTTTCGGAGTCACCTAGTGCAG	16400 fluorescence intensity (a.u.)
ATGTTCTTCAGTTACCGCAAATTTGCATCAACAAATTTGCCGGAGTCACCTAGTGCAG	6500 fluorescence intensity (a.u.)
GTTGGAGAGAGTGATTGGGAATTTAGAGGGATGAGGTTATCGGAGTCACCTAGTGCAG	10300 fluorescence intensity (a.u.)
GTTTGACAAAATCACATAATGTTAGACAACGTGCGTAGCCCGGAGTCACCTAGTGCAG	12900 fluorescence intensity (a.u.)
ATAAATAATTTAAAATTTCACCAAAATTCTAAGAAATTATCGGAGTCACCTAGTGCAG	6160 fluorescence intensity (a.u.)
